Lines with a small IC50 respond at low doses; fits outside the tested doses are given as limits. For AUC the same curve is integrated over the 256-fold range of doses and scaled to a fraction; it is 1 without any effect and falls as sensitivity rises. For some assays here: Where the top dose is marked as inferred, it comes from the curve model; the source does not state it. For some assays here: Where an entry number is given, a second screen of the drug exists; the two often differ.
How the values were obtained:
Assay in all cases: Viability of human cancer cell lines after 72 h of drug (GDSC screen)
AMG-706 = compound: CC1(C)CNc2cc(NC(=O)c3cccnc3NCc3ccncc3)ccc21 [AMG-706]; settings: top dose 2 µM; top dose inferred
Protocol: (§1)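 Human cancer cell lines in 384-well plates, medium with 10% serum, drug for 72 h over a 256-fold dose range (nine 2-fold or five 4-fold steps up to the top dose). Adherent lines were fixed and stained with the nucleic acid dye Syto60, suspension lines read with resazurin; signal relative to control wells, capped at 0 and 100%. One two-parameter sigmoid per drug and line, fitted in a mixed model over all curves with the slope shared within a line.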

YM155 = compound: COCC[n+]1c2c(n(Cc3cnccn3)c1C)C(=O)c1ccccc1C2=O [YM155]; settings: top dose 5.12 µM
Protocol: as §1

JNJ-26854165 = compound: c1ccc2c(CCNc3ccc(Nc4ccncc4)cc3)c[nH]c2c1 [JNJ-26854165]; settings: top dose 10 µM
Protocol: as §1

FTI-277 = compound: COC(=O)[C@H](CCSC)NC(=O)c1ccc(NC[C@@H](N)CS)cc1-c1ccccc1 [FTI-277]; settings: top dose 1.024 µM; top dose inferred
Protocol: as §1

Docetaxel = compound: CC(=O)O[C@@]12CO[C@@H]1C[C@H](O)[C@@]1(C)C(=O)[C@H](O)C3=C(C)[C@@H](OC(=O)[C@H](O)[C@@H](NC(=O)OC(C)(C)C)c4ccccc4)C[C@@](O)([C@@H](OC(=O)c4ccccc4)[C@H]21)C3(C)C [Docetaxel]; settings: top dose 0.0125 µM
Protocol: as §1

Belinostat = compound: O=C(/C=C/c1cccc(S(=O)(=O)Nc2ccccc2)c1)NO [Belinostat]; settings: top dose 20 µM; top dose inferred
Protocol: as §1

SB-715992 = compound: Cc1ccc(C(=O)N(CCCN)[C@@H](c2nc3cc(Cl)ccc3c(=O)n2Cc2ccccc2)C(C)C)cc1 [SB-715992]; settings: top dose 0.128 µM; top dose inferred
Protocol: as §1

JNK Inhibitor VIII = compound: CCOc1nc(NC(=O)Cc2cc(OC)ccc2OC)cc(N)c1C#N [JNK Inhibitor VIII]; settings: top dose 10 µM; top dose inferred
Protocol: as §1

NSC-207895 = compound: CN1CCN(c2ccc([N+](=O)[O-])c3no[n+]([O-])c23)CC1 [NSC-207895]; settings: top dose 20 µM; top dose inferred
Protocol: as §1

JQ1 = compound: Cc1sc2c(c1C)C(c1ccc(Cl)cc1)=N[C@@H](CC(=O)OC(C)(C)C)c1nnc(C)n1-2 [JQ1]
Protocol: as §1

OSI-906 = compound: C[C@]1(O)C[C@@H](c2nc(-c3ccc4ccc(-c5ccccc5)nc4c3)c3c(N)nccn32)C1 [OSI-906]; settings: top dose 2.56 µM; top dose inferred
Protocol: as §1

[1] = top dose 1 µM, screen: GDSC drug entry 1218, top dose inferred
[2] = top dose 2.56 µM, screen: GDSC drug entry 163

Row | Cell Line | AUC (AMG-706) | IC50 (AMG-706) | AUC (YM155) | IC50 (YM155) | AUC (JNJ-26854165) | IC50 (JNJ-26854165) | AUC (FTI-277) | IC50 (FTI-277) | AUC (Docetaxel) | IC50 (Docetaxel) | AUC (Belinostat) | IC50 (Belinostat) | AUC (SB-715992) | IC50 (SB-715992) | AUC (JNK Inhibitor VIII) | IC50 (JNK Inhibitor VIII) | AUC (NSC-207895) | IC50 (NSC-207895) | AUC (JQ1; [1]) | IC50 (JQ1; [1]) | AUC (JQ1; [2]) | IC50 (JQ1; [2]) | AUC (OSI-906) | IC50 (OSI-906)
1 | A431 (skin, adherent) | 0.987 | > 2 µM | 0.023 | < 0.02 µM | 0.91 | > 10 µM | 0.987 | > 1.02 µM | 0.53 | 0.000937 µM | 0.255 | 0.258 µM | 0.692 | 0.0268 µM | 0.988 | > 10 µM | 0.845 | 13.6 µM | 0.978 | > 1 µM | 0.602 | 0.301 µM | – | –
2 | BICR22 (head and neck, adherent) | 0.943 | > 2 µM | – | – | 0.746 | 3.58 µM | 0.918 | > 1.02 µM | 0.376 | 0.000336 µM | 0.64 | 3.23 µM | 0.983 | > 0.128 µM | 0.924 | > 10 µM | 0.983 | > 20 µM | 0.946 | > 1 µM | 0.96 | > 2.56 µM | 0.952 | > 2.56 µM
3 | C-4-I (cervix, adherent) | 0.982 | > 2 µM | – | – | 0.839 | 7.69 µM | 0.972 | > 1.02 µM | 0.686 | 0.00272 µM | 0.692 | 4.54 µM | 0.869 | > 0.128 µM | 0.985 | > 10 µM | 0.977 | > 20 µM | 0.748 | 0.346 µM | 0.74 | 0.829 µM | 0.982 | > 2.56 µM
4 | CFPAC-1 (pancreas, adherent) | 0.951 | > 2 µM | – | – | – | – | 0.95 | > 1.02 µM | 0.794 | 0.00671 µM | 0.915 | > 20 µM | 0.959 | > 0.128 µM | 0.968 | > 10 µM | 0.953 | > 20 µM | 0.982 | > 1 µM | 0.652 | 0.45 µM | – | –
5 | Caov-4 (ovary, adherent) | 0.977 | > 2 µM | – | – | 0.956 | > 10 µM | 0.969 | > 1.02 µM | 0.968 | > 0.0125 µM | – | – | 0.894 | > 0.128 µM | 0.98 | > 10 µM | – | – | 0.975 | > 1 µM | 0.937 | > 2.56 µM | 0.9 | > 2.56 µM
6 | FU-OV-1 (ovary, adherent) | 0.979 | > 2 µM | – | – | 0.887 | > 10 µM | 0.972 | > 1.02 µM | 0.881 | > 0.0125 µM | 0.786 | 11.7 µM | 0.898 | > 0.128 µM | 0.963 | > 10 µM | 0.907 | > 20 µM | 0.769 | 0.501 µM | 0.488 | 0.147 µM | 0.556 | 0.238 µM
7 | H4 (glioma, adherent) | 0.982 | > 2 µM | – | – | 0.581 | 1.04 µM | 0.982 | > 1.02 µM | 0.686 | 0.00257 µM | – | – | 0.613 | 0.0163 µM | 0.986 | > 10 µM | 0.968 | > 20 µM | 0.985 | > 1 µM | 0.592 | 0.285 µM | 0.983 | > 2.56 µM
8 | H290 (mesothelioma, adherent) | 0.987 | > 2 µM | – | – | 0.901 | > 10 µM | 0.97 | > 1.02 µM | 0.806 | 0.0057 µM | – | – | 0.97 | > 0.128 µM | 0.989 | > 10 µM | – | – | 0.976 | > 1 µM | 0.911 | > 2.56 µM | 0.969 | > 2.56 µM
9 | HCC202 (breast, adherent) | 0.96 | > 2 µM | 0.156 | < 0.02 µM | 0.952 | > 10 µM | – | – | 0.97 | > 0.0125 µM | 0.33 | 0.346 µM | 0.917 | > 0.128 µM | 0.979 | > 10 µM | 0.946 | > 20 µM | 0.963 | > 1 µM | – | – | 0.921 | > 2.56 µM
10 | Hs746T (stomach, adherent) | 0.917 | > 2 µM | 0.044 | < 0.02 µM | 0.805 | 7.3 µM | 0.981 | > 1.02 µM | 0.875 | > 0.0125 µM | 0.349 | 0.411 µM | 0.788 | 0.0787 µM | 0.936 | > 10 µM | 0.618 | 2.96 µM | 0.977 | > 1 µM | 0.961 | > 2.56 µM | – | –
11 | NCI-H630 (large intestine, adherent) | 0.987 | > 2 µM | 0.828 | 3.47 µM | 0.986 | > 10 µM | 0.976 | > 1.02 µM | 0.973 | > 0.0125 µM | 0.486 | 1.14 µM | 0.959 | > 0.128 µM | 0.986 | > 10 µM | 0.96 | > 20 µM | 0.987 | > 1 µM | 0.707 | 0.643 µM | – | –
12 | NCI-H1688 (small cell lung carcinoma, adherent) | 0.901 | > 2 µM | – | – | 0.875 | > 10 µM | 0.986 | > 1.02 µM | 0.92 | > 0.0125 µM | 0.307 | 0.337 µM | 0.945 | > 0.128 µM | 0.813 | 6.13 µM | 0.962 | > 20 µM | 0.977 | > 1 µM | 0.718 | 0.712 µM | 0.96 | > 2.56 µM

— the supplement of paper PMC4967469
